Experimental data as given in the supplement of paper PMC5499739.
Over roughly 16,000 sequences, “Z-score” has its median near -0.37; the highest 2% begin near 3.1. The list shows a part of the results.

tested on: RBM10 RRM1-ZnF-RRM2 (GST-tagged construct); test: RNAcompete 7-mer binding Z-score; higher = stronger binding preference
Outline: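 A one-sided Z-score for enrichment, taken across the probes containing each heptamer motif, was assigned to every such motif. The RNA came from a designed pool of 241 399 sequences up to 41 nt (1.5 nmol), bound by 20 pmol of GST-tagged RBM10 constructs in 1 ml Hepes pH 7.8 buffer with glutathione Sepharose beads for 30 min at 4°C. Four 2-min washes at 4°C preceded identification of bound RNA by microarray hybridisation.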

Sequence | RNAcompete 7-mer binding Z-score
GGCCAUU | -0.391
GUCCGCA | -0.672
UCUGCUU | -0.89
GGCAGUG | 1.46
CAGAGCA | 0.257
ACCGAGA | -0.278
CAAAGAA | 0.0058
GUUCCAA | -0.351
CGAAUAC | -0.442
CUCUUUG | -0.97
GGAUUCU | -0.191
UUUUUUC | -0.697
GACAGGG | 2.93
CAACCUC | -0.792
CAGGGUG | 2.84
UCAUUAC | -0.632
UUCCGUU | -0.581
AUGGACU | 0.745
CCUGUGU | -0.77
CGCCAAA | -0.752
AGUUAAC | -0.125
GCCCGCG | -0.453
GUCAACA | -0.0343

Sequence | RNAcompete 7-mer binding Z-score
UUUGGAU | -0.125
AGGCCAG | -0.0816
UCUAACA | -0.602
AACUCGA | -0.5
CUUACGC | -0.927
GUUCCGU | -0.373
GAUUUAU | -0.424
CAUAAGA | -0.358
UUGUUGA | -0.278
CAAUGCC | -0.672
GAUGGUC | 0.527
CGCCCUA | -0.766
UGGGUAG | 3.34
GGAAUGA | 2.1
ACAUCGC | -0.708
UGCAUUA | -0.202
UGCGAAU | -0.18
UCGCGGA | -0.00877
GGGCUCU | -0.00148
CUCGGCG | -0.125
GGCAUAG | 1.23
GAGGGAC | 2.02
UGGUUUG | 0.993

Sequence | RNAcompete 7-mer binding Z-score
UCGUUAG | -0.129
UACCAGA | -0.493
AAUACGA | 0.0204
CUUGAAC | -0.781
UCGACAU | -0.497
CCCACCC | -0.337
GGAAGAG | 3.03
UGUGACA | -0.125
CGCUUAC | -0.788
AAUAAUC | -0.515
ACGGUGG | 2.73
GUAGGAC | 1.86
GACAUAA | -0.144
UUGUGUA | -0.504
ACUACGA | -0.435
AUAGCAA | -0.0161
UACCCUA | -0.675
UGUUGAU | -0.566
AUUUAUA | -0.697
UCCACAU | -0.599
UUCAUCU | -0.653
UUGGCCA | -0.34
CAUAAAU | -0.551

Sequence | RNAcompete 7-mer binding Z-score
CUGGCGA | -0.162
GCAUUAG | -0.0415
CUUGUGG | -0.344
ACCAACG | -0.267
GACAAGC | -0.0233
CAAAUAU | -0.621
UAUGGGA | 2.76
UAUACGG | 0.253
UGACUAG | -0.187
CCGCUAA | -0.712
GUUUGGA | 0.942
AGUGGAC | 1.44
CCUCUAA | -0.792
AGGAAUU | 0.585
UUCGAGA | -0.337
CGAGAAC | -0.173
GCGAAGU | 0.603
CGUAUUC | -0.668
CUAACAA | -0.515
GAAUAGG | 3.18
AAUGGCA | 1.68
UUGCUCU | -0.912
UCGUAUU | -0.267

Sequence | RNAcompete 7-mer binding Z-score
CUCGCCU | -0.825
UGACGGG | 2.14
CAUCGAG | -0.0889
ACUUUGU | -0.901
CCAUCAG | -0.628
UUACAAC | -0.449
UUUCCUU | -0.788
CAGGGAA | 3.07
AAAUAUU | -0.46
GACUCAC | -0.737
UAACCGU | -0.664
CCACUCU | -0.817
UUCCACC | -0.737
CGCAACC | -0.621
ACAUCCG | -0.613
GCUAGAU | -0.413
AUCUCAC | -0.792
UACCUUA | -0.799
ACCCAAA | -0.694
GAGCUAA | -0.173
AAUUAUU | -0.632
UCUAUAU | -0.719
GUUGGGA | 3.05

Sequence | RNAcompete 7-mer binding Z-score
AAUCGCG | -0.42
CUAAGGU | 0.111
CCGACGG | 0.428
UGAUCGG | 0.782
AGCAUCC | -0.595
GCUCAUA | -0.686
CGCUUGG | -0.508
ACGAUUA | -0.424
UCGUCAC | -0.398
GGUAUCG | 0.916
ACCUACC | -0.803
AUUACUU | -0.734
CCGUAAA | -0.621
AACUCUU | -0.883
GUCAGCC | -0.431
AGUAUGC | 0.0204
GGAGCCC | 0.0786
AAACAGU | -0.129
AACCGCG | -0.351
GAGACGG | 1.9
GCACCUC | -0.446
GGAAGAU | 1.55
CUUGGGG | 1.13

Sequence | RNAcompete 7-mer binding Z-score
AUAGGAA | 2.49
UAACACC | -0.686
CGACGCC | -0.628
UUAUACA | -0.493
UGGGAUC | 1.83
CCUAACC | -0.85
AUCGACC | -0.916
GCAGGUC | 0.527
UGGCCGU | -0.14
UUAAAGG | 0.789
GCGAUCU | -0.701
UACUUAU | -0.686
CAAAAUA | -0.486
GGCCUGC | -0.595
UGCCACU | -0.741
AGGCCUA | -0.602
UUGACUC | -0.697
GCCCACC | -0.879
ACUCCUA | -0.806
GAGAAGA | 1.04
UGAAUUA | -0.209
GUAGAAA | 0.807
UUAUAGA | -0.369

Sequence | RNAcompete 7-mer binding Z-score
ACGUUCC | -0.515
CAGUCGA | -0.162
CUUAUAG | -0.635
AAUCAAG | 0.202
UACGUUC | -0.686
GGUUGUC | 0.253
ACACGGU | 0.497
CCGAGCU | -0.763
AUAGCAC | -0.388
AGGUCCC | -0.493
CUCAUCG | -0.701
UGGAGUG | 2.72
CCACGAC | -0.541
UAAGAGA | 0.304
UAUUAGC | -0.358
UACAUGG | 0.971
GACGGAA | 1.46
UAGUAGU | 0.0532
GAUAAAC | -0.144
AGACCAA | -0.439
CACUAGG | 0.257
UUGCCAC | -0.726
UGUGGAU | 1.5
